Source: PubChem BioAssay AID2147 (National Center for Advancing Translational Sciences (NCATS), 2009)
Screen size: about 230,000 compounds; about 3,600 (1.6%) were called active. The shares of active, inactive and inconclusive entries below differ from those in the screen. The call rests on the fitted dose curve; in most records, active means well fitted inhibition curve with a large enough effect (not every such curve was filed as active); inconclusive means small, poorly fitted or top-dose-only effect, or another doubt; inactive means no such curve, though single readings can be large or run the other way. A potency beside an inconclusive call is a rough fit, not a confirmed value.

target: Lysine-specific demethylase 4E (Homo sapiens) (UniProt B2RXH2); assay: qHTS Assay for Inhibitors of Human Jumonji Domain Containing 2E (JMJD2E); details: JMJD2E catalytic domain, FDH-coupled NADH fluorescence (FDH is formaldehyde dehydrogenase); series mostly up to 57.1 µM; activity change, negative = inhibition: at the top concentration
Sequence of UniProt B2RXH2 (B2RXH2 whole entry, looked up, the tested form may be a part): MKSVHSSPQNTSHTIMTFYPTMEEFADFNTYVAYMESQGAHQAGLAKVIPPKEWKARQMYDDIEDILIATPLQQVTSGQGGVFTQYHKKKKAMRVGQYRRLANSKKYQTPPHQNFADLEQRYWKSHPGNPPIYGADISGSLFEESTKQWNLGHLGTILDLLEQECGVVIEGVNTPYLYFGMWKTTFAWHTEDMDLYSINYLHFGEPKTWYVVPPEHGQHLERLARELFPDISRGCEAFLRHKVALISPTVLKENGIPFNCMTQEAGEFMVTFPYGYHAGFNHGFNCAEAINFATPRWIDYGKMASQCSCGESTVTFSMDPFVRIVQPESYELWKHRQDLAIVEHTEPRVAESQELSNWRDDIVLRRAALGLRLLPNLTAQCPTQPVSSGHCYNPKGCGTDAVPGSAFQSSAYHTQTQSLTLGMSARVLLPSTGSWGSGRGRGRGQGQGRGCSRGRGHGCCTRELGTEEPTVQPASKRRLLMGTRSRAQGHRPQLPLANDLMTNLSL
Further: nearly all actives have a fitted effect of over 50% in size.
Potency means the concentration at half of the fitted maximal effect; tags describe the fitted curve by direction and shape.
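Wherever activity change, negative = inhibition is given: 0% = wells with enzyme and -100% = buffer wells without enzyme.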

| SMILES | activity change, negative = inhibition | Potency |
| --- | --- | --- |
| O=C1NC(=Nc2ccccc2)S/C1=C\C=C\c1ccco1 | inactive: -2.88% |  |
| C(=N\NC1=Nc2cccc3cccc1c23)/c1ccccc1 | inactive: -2.17% |  |
| COc1ccc2c(c1)[nH]c1c(=O)n(/N=C/C3C(C)C=C(C)CC3C)c(=O)[nH]c12 (stereo not drawn) |  | inconclusive: 31.6 µM [inhibitor, single point] |
| Cc1cc(S(=O)(=O)Nc2cccc(O)c2)c(C)s1 |  | inconclusive: 39.8 µM [inhibitor, single point] |
| O=C(O)c1cc2nc(-c3ccc(F)cc3)cc(C(F)(F)F)n2n1 |  | inconclusive: 28.2 µM [inhibitor, single point] |
| COc1ccc(OC)c(-c2cc(C(=O)Nc3c(C)nn(Cc4ccccc4C)c3C)no2)c1 |  | inconclusive: 35.5 µM [inhibitor, single point] |
| NC(=O)c1nsc(C(=O)N(c2ccc(Cl)cc2)C(C(=O)NCC2CCCO2)c2cccs2)c1N (stereo not drawn) |  | inconclusive: 25.1 µM [inhibitor, partial curve] |
| O=C(Cc1ccc(Cl)cc1)NNC(=S)NC(=O)c1cccs1 |  | inconclusive: 39.8 µM [inhibitor, single point] |
| CCn1cc(-c2cc(C(=O)O)c3ccccc3n2)cn1 |  | inconclusive: 28.2 µM [inhibitor, partial curve] |
| COc1ccc2c(c1)C=C(C(=O)OCc1cccnc1)CO2 | inactive: -20.9% |  |
| O=C(COC(=O)c1ccc(O)cc1)NCc1ccc2c(c1)OCO2 | inactive: -0.753% |  |
| COc1cc2c(cc1OC)C1(Nc3c-2c(C)nn3-c2ccccc2)C(=O)Nc2ccccc21 (stereo not drawn) |  | inconclusive: 11.2 µM [inhibitor, partial curve] |
| O=C(CCCN1C(=O)c2cccc3cccc(c23)C1=O)N1CCN(c2ccccc2O)CC1 |  | inconclusive: 28.2 µM [inhibitor, single point] |
| Cc1cc2nc(-c3ccccc3)cc(=O)n2[nH]1 |  | inconclusive: 25.1 µM [inhibitor, partial curve] |
| COc1cccc(/C=C/C(=O)OCC(=O)Nc2ccccc2Sc2ccccc2)c1 |  | inconclusive: 28.2 µM [inhibitor, single point] |
| COc1ccc(-c2cc(=Nc3ccc(C(=O)O)cc3)c3cc(C)ccc3o2)cc1 |  | inconclusive: 25.1 µM [inhibitor, partial curve] |
| O=S(=O)(NCc1ccncc1)c1ccc(Br)s1 | inactive: -5.91% |  |
| Cc1nc2ccccn2c1-c1csc(NCc2ccco2)n1 |  | inconclusive: 28.2 µM [inhibitor, partial curve] |
| O=C(CNC(=O)c1ccc(Oc2ccccc2)cc1)OC1CCCCC1=O (stereo not drawn) |  | inconclusive: 39.8 µM [inhibitor, single point] |
| Cc1ccc(/C=C/C(=O)Nc2ccc(Oc3ccccc3)cc2)o1 |  | inconclusive: 39.8 µM [inhibitor, single point] |
| COc1cc(/C=N/NC(=O)CSc2n[nH]c(=O)[nH]c2=O)cc(OC)c1O | inactive: -13.8% |  |
| CNS(=O)(=O)c1cccc(C(=O)OC2CCCCC2=O)c1 (stereo not drawn) | inactive: 5.63% |  |
| O=C(CSc1ccc(-c2ccco2)nn1)NCc1ccc(F)cc1 |  | inconclusive: 39.8 µM [inhibitor, single point] |
| CCN(CC)C(=O)C1CCN(c2ncnc3c2cnn3-c2ccc(C)cc2C)CC1 | inactive: -9% |  |

| SMILES | activity change, negative = inhibition | Potency |
| --- | --- | --- |
| COc1ccc(/C(C)=N/NC(=O)c2ccccc2OCc2ccccc2)c(OC)c1 |  | inconclusive: 35.5 µM [inhibitor, single point] |
| Cc1ccccc1OCC(=O)NCC(=O)OCC(=O)c1ccc2ccccc2c1 |  | inconclusive: 39.8 µM [inhibitor, single point] |
| CC(O)CN(C)CC/C=C1/c2ccccc2CSc2ccccc21 (stereo not drawn) |  | inconclusive: 35.5 µM [inhibitor, single point] |
| COc1cccc(C(=O)N2CCN(Cc3cccc(F)c3)CC2)c1 |  | inconclusive: 39.8 µM [inhibitor, single point] |
| Cc1ccc(NC(=O)c2[nH]cnc2C(=O)NN)cc1 | inactive: 21.4% |  |
| NC(=O)Cc1ccc(Nc2nnc(-c3ccccc3)c3ccccc23)cc1 |  | inconclusive: 39.8 µM [inhibitor, single point] |
| Cc1cc(/C=N/n2c(COc3ccccc3)nc3ccccc3c2=O)c(O)c([N+](=O)[O-])c1 |  | inconclusive: 25.1 µM [inhibitor, single point] |
| c1ccc2c(c1)Oc1cccc3cccc-2c13 |  | inconclusive: 12.6 µM [inhibitor, partial curve] |
| COC(=O)CC1C(C)(C)C(O)C2CC3=C4C=C(OC)OC(c5ccoc5)[C@]4(C)CCC3[C@@]1(C)C2=O (stereo partly drawn) | inactive: -2.59% |  |
| O=C(O)CCc1ccc(-c2ccccc2)n1CC1CCCO1 (stereo not drawn) |  | inconclusive: 28.2 µM [inhibitor, partial curve] |
| O=C(NCc1ccccc1)C1=C[C@H](c2ccc(Br)cc2)C[C@H](OCc2ccc(CO)cc2)O1 | inactive: -11.7% |  |
| CCOc1ccccc1NC(=O)c1cccc(NC(=O)c2ccco2)c1 | inactive: -7.18% |  |
| COC(=O)c1cc2c(s1)-c1ccc(OC)cc1CC2 |  | inconclusive: 28.2 µM [inhibitor, partial curve] |
| O=C(O)CC(NC(=O)COc1ccc(Cl)cc1Cl)C(=O)O (stereo not drawn) | inactive: 1.44% |  |
| Cc1ccc2c(c1)c1c3n2CCN[C@H]3CCC1 |  | inconclusive: 20 µM [inhibitor, partial curve] |
| COCCCNC(=S)N1CCN(C)CC1 |  | inconclusive: 31.6 µM [inhibitor, single point] |
| COCC(=O)Nc1ccccc1-c1ccccc1 | inactive: 3.5% |  |
| COc1ccc(OC)c(-c2cc(C(=O)Nc3ccc(F)cc3F)no2)c1 |  | inconclusive: 25.1 µM [inhibitor, partial curve] |
| Oc1ccccc1Nc1nc(NCC2CCCO2)c2ccccc2n1 (stereo not drawn) | inactive: -3.92% |  |
| CCCSc1ncnc2c1oc1ccccc12 | inactive: -7.6% |  |
| COc1ccc(NC(=O)C(=O)N2N=C(C(C)C)CC2(O)C(F)(F)F)cc1 (stereo not drawn) | inactive: 1.9% |  |
| Nc1ccc2ncccc2c1N | inactive: -25.7% |  |
| CCN(CC)S(=O)(=O)c1cccc(NC(=O)c2ccc(SC)cc2OC)c1 |  | inconclusive: 28.2 µM [inhibitor, partial curve] |
| CN(C)c1ccnc2sc(C(N)=O)c(N)c12 |  | inconclusive: 25.1 µM [inhibitor, partial curve] |
